Assay results as given in PubChem BioAssay AID1346428 (National Center for Advancing Translational Sciences (NCATS), 2018).
Among all 48,000 compounds or so, about 1,200 (2.5%) were called active. About 2% were inconclusive and are not listed.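 How the source made its calls: active means activation of at least 60% and not above a set upper limit (about 1 call in 100 departs from these limits); inconclusive means activation of 40% to 60%, or above that upper limit; inactive means activation under 40%.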 Some of the results follow.

What follows are compounds tested against Probable G-protein coupled receptor 32 (Homo sapiens) (UniProt O75388) (assay: qHTS for Agonists of Human Resolvin D1 Receptor DRV1). Settings: CHO-K1 GPR32 beta-arrestin PathHunter luminescence, 90 min; at 76.9 µM; active compounds read high; zero percent set by DMSO-only wells.
Summary of the method: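 GPR32 activation in stably transfected CHO-K1 cells, detected as beta-arrestin recruitment by enzyme-fragment complementation. Compound exposure: 90 min, 37 °C.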
Further: 0% is about no effect.

Chain of UniProt O75388 (O75388 whole entry, looked up, the tested form may be a part): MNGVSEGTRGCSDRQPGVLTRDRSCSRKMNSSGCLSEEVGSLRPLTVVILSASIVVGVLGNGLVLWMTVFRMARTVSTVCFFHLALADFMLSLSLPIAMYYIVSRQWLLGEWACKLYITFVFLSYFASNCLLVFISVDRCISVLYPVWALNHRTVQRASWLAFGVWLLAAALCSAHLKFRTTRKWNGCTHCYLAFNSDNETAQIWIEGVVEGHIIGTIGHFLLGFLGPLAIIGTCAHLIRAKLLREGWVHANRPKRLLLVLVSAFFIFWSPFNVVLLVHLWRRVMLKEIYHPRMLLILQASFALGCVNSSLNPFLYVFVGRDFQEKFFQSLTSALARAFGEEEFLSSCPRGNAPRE

| Compound | activation |
| --- | --- |
| O=C(COc1ccccc1Cl)N(Cc1cccc(F)c1)C1CCS(=O)(=O)C1 (stereo not drawn) | inactive: -18.3% |
| COC(=O)c1ccccc1NC(=O)Cn1c(=O)n(CCCC(=O)NCc2ccccc2Cl)c(=O)c2ccccc21 | inactive: -19.4% |
| O=C(Cn1cnc2c(nc3n2CCCCC3)c1=O)Nc1cccc(C(F)(F)F)c1 | inactive: -11.8% |
| CCOc1ccc(/C=C/c2nc(C#N)c(NCCCN(C)C)o2)cc1 | inactive: 3.57% |
| CN(C(=O)Nc1cn(C)c(=O)c2ccccc12)c1ccccc1 | inactive: -59.9% |
| COc1cc(CNC(=O)CCCCCCC(C)C)ccc1O | inactive: -12.3% |
| COc1ccccc1CCNC(=O)Cc1c(C)c2c(cc(C)c3c(C)coc32)oc1=O | inactive: -8.2% |
| COc1ccc(N2C(=O)C(CC(=O)Nc3ccc(F)cc3)N(CCC3=CCCCC3)C2=O)cc1 (stereo not drawn) | inactive: -6.78% |
| O=C(NC1CC(=O)N(c2cccc(F)c2)C1)C1CCCCC1 (stereo not drawn) | inactive: 4.72% |
| O=C(CSC1=Nc2ccccc2N=C(c2ccc(F)cc2)C1)Nc1cc(F)ccc1F | inactive: -6.31% |
| COc1ccc(Cl)cc1NC(=O)CN1c2ccccc2S(=O)(=O)c2ccccc21 | inactive: 2.36% |
| CCCCNc1cc(NC2CCCCC2)c2c3c(onc13)-c1ccccc1C2=O | inactive: -19.8% |
| CCCN1C(=O)CN(C2CCCCCC2)C(=O)C1c1ccc(OCC)c(OC)c1 (stereo not drawn) | inactive: -18% |
| COCCCNC(=O)c1c(NC(=O)c2cc(=O)c3cc(C)c(C)cc3o2)sc2c1CCCC2 | inactive: 7.03% |
| COc1ccccc1CCNC(=O)c1cc2ccccn2n1 | inactive: 19.4% |
| CCCOc1ccc(CNC(=O)C2CCN(c3nc4ccccc4nc3C(F)(F)F)CC2)cc1 | inactive: 6.73% |
| CCn1cc2nc(SCc3cccc(OC)c3)n(Cc3ccc(Cl)cc3)c(=O)c2n1 | inactive: -4.17% |
| Cc1ccc(SCC(=O)Nc2cccc(-c3nc4cc(Cl)ccc4o3)c2C)cc1 | inactive: -5.02% |
| CC1=C(C(=O)Nc2ccccc2Cl)C(c2cccs2)n2ncnc2N1 (stereo not drawn) | inactive: 30.6% |
| O=C(CCC1N=C2c3ccccc3N=C(SCc3cccc(F)c3)N2C1=O)NC1CCCCC1 (stereo not drawn) | inactive: -6.89% |
| O=[N+]([O-])c1ccc(O)c2ncccc12 | inactive: -82.2% |
| COC(=O)c1cc2sccc2n1Cc1ccccc1 | inactive: -13.2% |
| COc1cccc(NS(=O)(=O)c2ccc3[nH]cc(C(=O)NC4CCCCC4)c(=O)c3c2)c1 | active: 103% |
| Cc1cc(NS(=O)(=O)c2ccc(NC(=O)COc3c(C)cc(Br)cc3C)cc2)no1 | inactive: -8.59% |
| O=S(=O)(NCc1ccccc1)c1ccc2[nH]c3c(c2c1)CCCCC3 | inactive: 10.6% |
| COc1cc(C(=O)Nc2ccc(-c3cc(C(F)(F)F)nn3-c3ccccc3)cc2)cc(OC)c1OC | inactive: -0.0264% |
| COc1ccccc1CNc1nc(-c2ccco2)nn1S(=O)(=O)c1ccc(Cl)cc1 | inactive: -20.7% |

| Compound | activation |
| --- | --- |
| Cc1ccc(S(=O)(=O)Nc2cc(Cl)c3oc4c(c3c2)C(=O)CC(C)(C)C4)cc1 | inactive: -2.05% |
| CCc1ccccc1NC(=O)c1cnn2c(C(F)(F)F)cc(-c3ccc(OC)c(OC)c3)nc12 | inactive: 1.24% |
| COCCNC(=O)C(=O)Nc1c2c(nn1-c1ccccc1)CS(=O)(=O)C2 | inactive: -12.3% |
| Cc1ccccc1NC(=O)CSc1nc2ccc(NC(=O)COc3ccccc3F)cc2s1 | inactive: 26.7% |
| COc1cc(OC)c(NC(=O)Cn2c(=O)cc(C(F)(F)F)c3c(C)nn(C)c32)cc1Cl | inactive: 0.713% |
| CCOC(=O)c1c(C)sc(-c2c(-c3cc(C)ccc3C)[nH]c3c2c(=O)[nH]c(=O)n3C)c1O | inactive: -21.1% |
| CCOc1ccc(CCNC(=O)Cn2nc(C)c3c(C)n(-c4ccccc4)nc3c2=O)cc1OCC | inactive: -12.2% |
| COc1ccccc1OCc1ccc(C(=O)Nc2ccc(C)c(C)c2)o1 | inactive: 7.54% |
| CCOC(=O)c1cnn(-c2cccc(F)c2)c1C1CCNCC1 | inactive: 3.24% |
| Cc1cccc(NC(=O)Cn2nc(N3CCN(c4ccccc4)CC3)ccc2=O)c1C | inactive: 32% |
| CCCCN(CC)CCCNC(=O)c1cn(C)c2ccc(S(=O)(=O)N(C)C3CCCCC3)cc2c1=O | inactive: -5.85% |
| CCOc1cc(C(=O)NCc2ccc3c(c2)CCN3C(=O)CC)cc(OCC)c1OCC | inactive: -1.66% |
| O=C(Nc1ccccc1C(=O)O)c1cccc(S(=O)(=O)N2CCCC2)c1 | inactive: 8.08% |
| O=C(NCc1ccc(F)cc1)C1CCN(C(=O)c2cnn(-c3ccccc3)c2-n2cccc2)CC1 | inactive: 9.21% |
| Cc1ccccc1NC(=O)CN(C)S(=O)(=O)c1cccc2nsnc12 | inactive: -13.5% |
| COc1cccc(CNC(=O)CCC(=O)N2CC3CCCN3c3ccccc32)c1 (stereo not drawn) | inactive: -24.2% |
| CCC(Cn1nnc2ccccc2c1=O)NC(=O)Nc1cccc(Cl)c1 (stereo not drawn) | inactive: -17.5% |
| CCc1cccc(NC(=O)Cn2c(=O)n(CC3CCC(C(=O)NCCc4ccccc4)CC3)c(=O)c3ccccc32)c1 (stereo not drawn) | inactive: 1.23% |
| Cc1ccc(C(=O)N2CCN(c3ccccc3F)CC2)cc1NC(=O)c1nsc2ccccc12 | inactive: -36.2% |
| COc1ccc(-c2[nH]ncc2C(=O)NCc2ccc(F)cc2)cc1 | inactive: -13.1% |
| Cc1c2cnn(CC(=O)Nc3ccc(F)cc3F)c(=O)c2c(C)n1Cc1cccc(Cl)c1 | inactive: -8.7% |
| CCOC(=O)c1cc2c(=O)n3ccccc3nc2n(Cc2ccco2)c1=NC(=O)c1ccccc1OC | inactive: -22.6% |
| Cc1ccc(NC(=O)C2CCCN(c3nnc(C)c4c(C)n(-c5ccccc5)nc34)C2)cc1Cl (stereo not drawn) | inactive: 14.8% |
| COc1ccc(-n2nc3c(c2NC(=O)C(=O)N2CCN(C)CC2)CSC3)cc1 | inactive: -6.78% |
| Cc1cc(C)cc(OCC(=O)Nc2cccc(-c3nc4ccccc4[nH]3)c2)c1 | inactive: 9.76% |
| O=C(Cn1c(=O)n(-c2ccc(F)cc2)c(=O)c2sccc21)Nc1cccc(C(F)(F)F)c1 | inactive: -24.4% |
